Reference: ChEMBL document CHEMBL2380284, “X-ray crystal structures of the Escherichia coli RNA polymerase in complex with benzoxazinorifamycins” (J Med Chem, 2013)

Biological target: DNA-directed RNA polymerase subunit beta (Escherichia coli O127:H6 (strain E2348/69 / EPEC), UniProt B7UPE2, S531L)

**Q.** How did the IC50 turn out when `CO[C@H]1/C=C/O[C@@]2(C)Oc3c(C)c(O)c4c(=O)c(c5oc6cc(N7CCN(CC(C)C)CC7)cc(O)c6nc-5c4c3C2=O)NC(=O)/C(C)=C\C=C\[C@H](C)[C@H](O)[C@@H](C)[C@@H](O)[C@@H](C)[C@H](OC(C)=O)[C@@H]1C` [RIFALAZIL] was run?
**A.** 63 µM

**Q.** Which IC50 does the source give for `CO[C@H]1/C=C/O[C@@]2(C)Oc3c(C)c(O)c4c(=O)c(c5oc6cccc(OCCCCN7CCN(C(=O)Cn8ccnc8)CC7)c6nc-5c4c3C2=O)NC(=O)/C(C)=C\C=C\[C@H](C)[C@H](O)[C@@H](C)[C@@H](O)[C@@H](C)[C@H](OC(C)=O)[C@@H]1C` here?
**A.** 13 µM

**Q.** `CCN(CC)CCOc1cccc2oc3c4c(=O)c5c(O)c(C)c6c(c5c-3nc12)C(=O)[C@@](C)(O/C=C/[C@H](OC)[C@@H](C)[C@@H](OC(C)=O)[C@H](C)[C@H](O)[C@H](C)[C@@H](O)[C@@H](C)/C=C/C=C(/C)C(=O)N4)O6` was tested. Which IC50 did it give?
**A.** 64 µM

**Q.** With `CO[C@H]1/C=C/O[C@@]2(C)Oc3c(C)c(O)c4c(=O)c(c5oc6cccc(OCCCCN7CCN(CCn8ccnc8)CC7)c6nc-5c4c3C2=O)NC(=O)/C(C)=C\C=C\[C@H](C)[C@H](O)[C@@H](C)[C@@H](O)[C@@H](C)[C@H](OC(C)=O)[C@@H]1C` as the compound, how does the IC50 read?
**A.** 92 µM

**Q.** Which IC50 does the source give for `CO[C@H]1/C=C/O[C@@]2(C)Oc3c(C)c(O)c4c(O)c(c(/C=N/N5CCN(C)CC5)c(O)c4c3C2=O)NC(=O)/C(C)=C\C=C\[C@H](C)[C@H](O)[C@@H](C)[C@@H](O)[C@@H](C)[C@H](OC(C)=O)[C@@H]1C` [RIFAMPIN] here?
**A.** 171 µM
